Source: the antibiotic and cytotoxicity screens of Wong et al. (2023)
The other results are listed elsewhere or left out.

tested on: HSkMC (human skeletal muscle cells); assay: cytotoxicity call (relative viability < 0.9); conditions: 10 µM

Question: With `C[C@H]1CN([C@@H](C)CO)C(=O)c2cccc(NC(=O)Nc3ccc4c(c3)OCO4)c2O[C@@H]1CN(C)Cc1ccc(Cl)c(Cl)c1` as the molecule, how does the cytotoxicity call read?
Answer: inactive

Question: `C[C@@H]1CCCCO[C@@H](CN(C)CC2CCCCC2)[C@@H](C)CN([C@H](C)CO)C(=O)c2cc(NC(=O)Nc3ccc(F)cc3)ccc2O1` was tested. Which cytotoxicity call did it give?
Answer: inactive

Question: For `C[C@H]1CCCCO[C@H](CN(C)C(=O)c2ccncc2)[C@@H](C)CN([C@@H](C)CO)C(=O)c2cc(NS(=O)(=O)c3ccc(Cl)cc3)ccc2O1`, which cytotoxicity call is on record?
Answer: inactive

Question: With `C[C@@H]1CCCCO[C@H](CN(C)CC2CC2)[C@@H](C)CN([C@H](C)CO)C(=O)c2cc(NC(=O)Nc3cccc4ccccc34)ccc2O1` as the molecule, how does the cytotoxicity call read?
Answer: inactive

Question: For `COc1ccc(C#Cc2ccc3c(c2)O[C@H](CN(C)S(=O)(=O)c2ccccc2F)[C@@H](C)CN([C@@H](C)CO)S3(=O)=O)cc1`, which cytotoxicity call is on record?
Answer: inactive

Question: With `CC(C)CC#Cc1ccc2c(c1)O[C@H](CN(C)C(=O)c1ccncc1)[C@H](C)CN([C@H](C)CO)S2(=O)=O` as the molecule, how does the cytotoxicity call read?
Answer: inactive

Question: With `O=C(/C=C/c1ccc(O)c(O)c1)O[C@@H]1C[C@](OC(=O)/C=C/c2ccc(O)c(O)c2)(C(=O)O)C[C@@H](O)[C@H]1O` as the molecule, how does the cytotoxicity call read?
Answer: inactive

Question: How did the cytotoxicity call turn out when `C[C@@H]1CCCCO[C@H](CN(C)S(=O)(=O)c2ccc(F)cc2)[C@H](C)CN([C@@H](C)CO)C(=O)c2cc(NC(=O)CCC(F)(F)F)ccc2O1` was run?
Answer: inactive

Question: `COc1ccc(S(=O)(=O)Nc2cccc3c2O[C@H](CN(C)Cc2ccc(-c4ccccc4)cc2)[C@H](C)CN([C@@H](C)CO)C3=O)cc1` was tested. Which cytotoxicity call did it give?
Answer: inactive

Question: With `O=C(C[C@@H]1C[C@H]2c3cc(NS(=O)(=O)c4ccc(F)cc4)ccc3O[C@H]2[C@@H](CO)O1)NCc1cccc(F)c1` as the molecule, how does the cytotoxicity call read?
Answer: inactive
